# According to PubChem BioAssay AID720542 (National Center for Advancing Translational Sciences (NCATS), 2013):
# Several values for one entry are separate records, joined by “and”; a condition that tells them apart may be missing. Identical values can stand only once. The whole screen tested about 360,000 compounds, of which about 740 (0.21%) were called active. The shares of active, inactive and inconclusive entries below differ from those in the screen. Calls come from the whole dose curve; as a rule, active = well fitted inhibition curve with a large enough effect; inconclusive = small, poorly fitted or top-dose-only effect; inactive = no such curve, though single readings can be large or run the other way. Potencies beside an inconclusive call are fits to weak or partial responses and may not hold up.
# System: Plasmodium falciparum AMA1 (3D7) - RON2 peptide interaction
# Assay: qHTS for Inhibitors of AMA1-RON; Towards Development of Antimalarial Drug Lead: Primary Screen; note: nearly all actives have a fitted effect of over 45% in size;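 for activity change, negative = inhibition: 0% = vehicle wells and -100% = peptide control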
# Details: AlphaScreen AMA1-biotinylated RON2 peptide binding; activity change, negative = inhibition: at 58.2 µM (top of the series) unless noted
# In short: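 AMA1 (3D7) with his tag at 25 nM final met compounds first, then biotinylated RON2 peptide at 25 nM; detection used donor plus acceptor beads, 10 µg/mL apiece, read by AlphaScreen after 30 min at room temperature.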
# Potency is the fitted concentration of half-maximal effect; tags give direction and shape of the fitted curve.
SMILES,"activity change, negative = inhibition",Potency
CCc1cccc2c(C(=O)COC(=O)c3ccc(O)cc3)c[nH]c12,inactive: 17.4%,–
COc1ccc(NC(=O)C2Cc3c(-c4ccc5c(c4)OCO5)ccnc3O2)cc1OC (stereo not given),–,"inconclusive: 15.8 µM [inhibitor, partial curve]"
O=C(Nc1ccc(N2CCCCCC2)cc1)c1ccccc1Cl,–,"inconclusive: 25.1 µM [inhibitor, single point]"
COc1ccccc1CN1CCN(C(=O)c2ccncc2)CC1,–,"inconclusive: 39.8 µM [inhibitor, single point]"
O=C(NC1CCCC1)C(c1ccc(F)cc1)N(Cc1ccc(Cl)cc1)C(=O)CCl (stereo not given),inactive: 3.93%,–
Cc1cc2oc(C(=O)N(Cc3ccccc3)C3CCS(=O)(=O)C3)c(C)c2cc1C (stereo not given),–,"inconclusive: 39.8 µM [inhibitor, partial curve, poor fit]"
COc1cccc(CC2(CO)CCCN(CC3=Cc4cc(OC)ccc4OC3)C2)c1 (stereo not given),–,"inconclusive: 31.6 µM [inhibitor, partial curve]"
Cc1ccc2nc(C(C)(C)C)c(Cc3ccsc3)n2c1,–,"inconclusive: 25.1 µM [inhibitor, single point]"
COC(=O)c1ccc(N2CCN(S(=O)(=O)c3ccc(C)cc3)CC2)c([N+](=O)[O-])c1,–,"inconclusive: 8.91 µM [inhibitor, single point]"
O=C(/C=C/c1ccccc1[N+](=O)[O-])OCC(=O)c1ccccc1,–,"inconclusive: 20 µM [inhibitor, single point]"
CN1/C(=C\C=C2/SC(=S)N(CC(=O)O)C2=O)C(C)(C)c2ccccc21,–,active: 20 µM
O=C(NC(=S)Nc1nc2ccccc2s1)c1ccco1,inactive: 51.1%,–
CCc1ccccc1NC(=S)N(CCN1CCOCC1)C1CCN(C(C)=O)CC1,inactive: -0.44%,–
COc1ccc(N2CCN(c3oc(COc4ccc(Cl)cc4)nc3C#N)CC2)cc1,–,"inconclusive: 35.5 µM [inhibitor, partial curve]"
CS(=O)(=O)c1ccccc1C(=O)Nc1cccc(-c2nc3ccccc3o2)c1,inactive: -2.84%,–
Cc1cc(C)c(S(=O)(=O)NCCCn2ccnc2)cc1C,–,"inconclusive: 12.6 µM [inhibitor, partial curve]"
Nc1nc(C2C(=O)CCCC2=O)cs1,–,"inconclusive: 37.7 µM [inhibitor, single point]"
CC(C)COC(=O)Nc1nnc(SCc2ccccc2F)s1,–,"inconclusive: 28.2 µM [inhibitor, partial curve]"
CCN1CCN(Cc2ccc(NC(=O)c3cc(NC(=O)C(=O)c4c[nH]c5ccccc45)cc(OC)c3)cc2C(F)(F)F)CC1,–,"inconclusive: 39.8 µM [inhibitor, single point] and inconclusive: 17.8 µM [inhibitor, partial curve]"
CC(C)(C)c1cc(C=C(C#N)C#N)cc(C(C)(C)C)c1O,inactive: -12.8%,–
COc1ccccc1C1SCCN1S(=O)(=O)c1ccccc1 (stereo not given),inactive: -9.81%,–
Cc1cc(C(C)(C)C)cc(C)c1CCNC(=O)c1ccc[n+]([O-])c1,–,"inconclusive: 44.7 µM [inhibitor, partial curve, poor fit]"
CCOC(=O)c1cc2c(ccn2C)n1Cc1cc(C)ccc1C,–,"inconclusive: 29.9 µM [inhibitor, partial curve]"
Cc1cc(N2CCN(c3ccccc3)CC2)nc(-c2ccccc2)n1,–,"inconclusive: 20 µM [inhibitor, partial curve, poor fit]"

SMILES,"activity change, negative = inhibition",Potency
Cc1cc(C)cc(NC2=C(N)C(=O)c3ccccc3C2=O)c1,–,"inconclusive: 8.91 µM [inhibitor, full curve]"
CCOC(=O)N1CCN(C2=C(NS(=O)(=O)c3ccccc3)C(=O)c3ccccc3C2=O)CC1,–,"inconclusive: 31.6 µM [inhibitor, single point]"
CN(C)CCNC(=O)c1cccc(-c2cnc3c(NC=O)cc(/C=C/c4ccccc4)cn23)c1,inactive: 3.12%,–
N#C/C(=C\c1ccc[nH]1)C(=O)NC1CC1,inactive: 8.49%,–
O=C(/C(=C/O)N=Nc1ccccc1Cl)c1ccccc1,–,"inconclusive: 20 µM [inhibitor, single point]"
O=C1NC[C@H](CCCCN2C[C@H](Cc3ccccc3)N(CCC3CCCCC3)C(=O)C2=O)N(CCc2ccc(O)cc2)C1=O,inactive: 0%,–
O=C(/C=C/c1ccc(-c2ccccc2[N+](=O)[O-])o1)c1ccc(F)cc1,–,"inconclusive: 18.9 µM [inhibitor, partial curve]"
[O-]C(=C(C(=S)Nc1cccc2ccccc12)[n+]1cccc(CO)c1)c1ccc(Cl)s1,inactive: -11.1%,–
O=[N+]([O-])c1ccccc1S(=O)(=O)N1CCN(Cc2cc3c(cc2O)OCO3)CC1,–,"inconclusive: 28.2 µM [inhibitor, single point]"
COc1ccccc1NC(=S)NC(NC(=O)c1ccco1)C(Cl)(Cl)Cl (stereo not given),inactive: -8.33%,–
CCCC1S/C(=N/N=C/c2ccc(C)cc2)N(Cc2ccc(OC)cc2)C1=O (stereo not given),inactive: -4.19%,–
COc1ccc(NC(=S)N(Cc2ccc(N(C)C)cc2)Cc2ccco2)cc1,–,"inconclusive: 2.51 µM [inhibitor, full curve]"
Fc1cccc(CN2CCN(c3ncccn3)CC2)c1,–,"inconclusive: 29.9 µM [inhibitor, partial curve]"
COc1cc(C(=O)Nc2sc3c(c2C(=O)NCc2ccco2)CCCC3)cc(OC)c1OC,inactive: 12.7%,–
N#Cc1c(/N=C/c2cc(Br)cs2)sc2c1CCC2,–,"inconclusive: 1.12 µM [inhibitor, full curve, poor fit]"
CCOC(=O)/C(N=Nc1c(Br)cc(Br)cc1Br)=C(\C)O,–,"inconclusive: 7.08 µM [inhibitor, single point]"
O=C1C(=O)C(Cl)=C(Cl)C(Cl)=C1Cl,–,"inconclusive: 25.1 µM [inhibitor, single point]"
CCCCCNCC(=O)Nc1cccc(C(=O)Nc2cccc(C(F)(F)F)c2)c1,inactive: -9.45%,–
COc1cc(OC)cc(C(=O)N2CCN(Cc3ccc4c(c3)OCO4)CC2)c1,–,"inconclusive: 22.4 µM [inhibitor, partial curve]"
CCCCc1ccc(-c2ccc(C)cc2O)nc1,inactive: 58%,–
COc1ccc(OC)c(NC(=O)NCCCCc2ccccc2)c1,–,"inconclusive: 39.8 µM [inhibitor, partial curve]"
CCOC(=O)N1CCN(C(=O)c2ccc3c(=O)n(-c4ccc(OC)cc4)c(=S)[nH]c3c2)CC1,–,"inconclusive: 35.5 µM [inhibitor, single point]"
CCN(CC)CC(O)CN1C(=O)NC(C)(C)C1=O (stereo not given),inactive: -0.94%,–
Cc1ccnc(Nc2nc(-c3ccc(F)cc3)cs2)c1,–,"inconclusive: 39.8 µM [inhibitor, partial curve]"

SMILES,"activity change, negative = inhibition",Potency
O=C(NCc1ccc(F)cc1)c1ccncc1,inactive: -8.61%,–
CN(CCN(C)C(C)(C)C)C(=O)C(c1ccccc1)c1ccccc1,–,"inconclusive: 31.6 µM [inhibitor, partial curve]"
COc1ccc(C(=O)N2CCN(C3CCC(c4ccccc4)CC3)CC2)cc1OC (stereo not given),–,"inconclusive: 26.7 µM [inhibitor, partial curve]"
Nc1cc2c(cc1C(=O)c1ccc(Cl)cc1)OCCO2,–,"inconclusive: 21.2 µM [inhibitor, single point]"
CC(C)OCCCN1CN(S(=O)(=O)c2ccc(Cl)cc2)c2nc3ccccc3nc21,inactive: 7.22%,–
O=C1/C(=C\c2cccnc2)Sc2ccccc21,–,"inconclusive: 22.4 µM [inhibitor, partial curve]"
O=c1c2ccc([N+](=O)[O-])cc2ncn1CCOc1ccccc1,inactive: -1.17%,–
CCOc1ccccc1NC(=O)CC(O)(C(F)(F)F)C(F)(F)F,–,"inconclusive: 17.8 µM [inhibitor, partial curve, poor fit]"
O=C(O)c1cc(O)c2c(c1)C(=O)c1cc(O)cc(O)c1C2=O,–,"inconclusive: 8.91 µM [inhibitor, partial curve]"
Cn1c(SCc2cccc([N+](=O)[O-])c2)nc2c(c1=O)SCC2,–,"inconclusive: 39.8 µM [inhibitor, single point]"
Cn1c(Cn2c(=O)sc3ccccc32)nnc1SCC(=O)Nc1cccc(Cl)c1,inactive: 1.4%,–
COc1ccc(C(c2nnnn2C2CCCCC2)N2CCN(c3ccc(OC)cc3)CC2)cc1 (stereo not given),–,"inconclusive: 35.5 µM [inhibitor, single point]"
CC1(C)CC(=O)C=C(c2ccc(COC(=O)c3ccc(-c4ccccc4)cc3)cc2)C1=O,–,"inconclusive: 1.26 µM [inhibitor, partial curve]"
COc1ccc(-c2nc3c(c(=O)[nH]c(=O)n3Cc3ccccc3)n2Cc2ccccc2)cc1,inconclusive: -8.05% [inhibitor],–
C=CCc1cc(C)ccc1OCCOCCn1ccnc1,–,"inconclusive: 8.91 µM [inhibitor, partial curve]"
NC(N)=NS(=O)(=O)c1ccc(NC(=S)NC(=O)c2ccc3c(c2)OCO3)cc1,inactive: 0%,–
C=CCc1ccc(OCCOCCOc2cccc3ccc(C)nc23)c(OC)c1,–,"inconclusive: 39.8 µM [inhibitor, single point]"
COC(CNC(=O)c1ccc(N2CCCC2=O)cc1)OC,–,"inconclusive: 6.31 µM [inhibitor, single point]"
CCOC(=O)C(NCCCO)c1ccccc1 (stereo not given),–,"inconclusive: 33.6 µM [inhibitor, partial curve]"
CNc1nc(C(=O)O)nc(N2CCOCC2)n1,–,"inconclusive: 37.7 µM [inhibitor, single point]"
CCN(CC)S(=O)(=O)c1ccc(N2CCCC2)c(C(=O)OCC(=O)/C(C#N)=C(\C)N)c1,inactive: -4.11%,–
O=[N+]([O-])c1ccccc1NCc1ccccc1Cl,–,"inconclusive: 39.8 µM [inhibitor, single point]"
